The subject of the assay is CF mice (CF knock-out mice and CF ΔF508 mice). Description: CF mice on talniflumate containing chow: body weight and survival. The following applies: approximate dose of 100 mg/kg per os, sacrificed at that time.

With `O=C1OC(OC(=O)c2cccnc2Nc2cccc(C(F)(F)F)c2)c2ccccc21` (stereo not shown) [Talniflumate, talniflumate], the survival result is listed as “at least 26 days”.

Values taken from patent US7345051B2, “Mucin synthesis inhibitors” (Genaera Corporation, priority 2000, dated 2008).
